# Assay results: the supplement of paper PMC3334620
# The full ranking holds about 33,000 sequences; the median of “E-score (-0.5 to 0.5)” is about -0.054, and the highest 2% start at about 0.39. The list shows a part of the results.
# Target: Ylr278c (UniProt Q05854)
# Assay: PBM E-score (8-mer binding enrichment) (E-score (-0.5 to 0.5)); higher = stronger / more preferred TF binding; most listed sequences are background and not binding sites
# Details: protein concentration: 200 nM; construct: GST-DNA-binding domain
# Procedure, shortened: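 Full-length yeast transcription factors or their DNA-binding domains, GST-tagged and expressed with PURExpress, were applied at about 100-200 nM to universal all-10-mer Agilent arrays. These arrays had been made double-stranded by primer extension on fresh or once-stripped slides. Detection used fluorescent anti-GST, normalisation used masliner, and E-scores for ungapped eight-base words pooled with reverse complements came from the Universal PBM Analysis Suite.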
row,Sequence,PBM E-score
1,AGGATATG,-0.0514
2,ATACCGAA,0.2
3,TGAACAAA,0.107
4,CAGTCTGG,-0.243
5,ATACGGGC,0.0151
6,ATGTTCAA,0.0484
7,CGTGGTTA,-0.335
8,CCGCCTTA,0.00602
9,ACAATGCA,-0.0752
10,CAGGTTGG,-0.138
11,CCGCACGG,0.254
12,CGAAAGCC,0.0675
13,AAGTTCCT,-0.0671
14,AGTACTAA,-0.231
15,AAGACACG,0.00593
16,AGTCCGTC,0.381
17,AGATTCCA,-0.09
18,ACGATGCA,-0.0494
19,ATAGTAGA,-0.0513
20,ACTGTTGA,-0.0774
21,AGTATCTG,-0.207
22,TATATGAA,-0.17
23,GAGGTATA,-0.112
24,ATCAGACC,-0.0364
25,GATGTAGC,-0.145
26,GGAAGTCC,0.307

row,Sequence,PBM E-score
1,AATGAGCT,-0.0278
2,ATCGCAAC,-0.13
3,AATATGCA,-0.0551
4,AAAGGCTC,-0.148
5,ACCTCTTA,0.176
6,TCTCACAA,-0.0311
7,CTGATTCA,-0.0744
8,CAGTTGGA,-0.0915
9,GACTATCA,-0.204
10,CGTCGATA,0.0682
11,ATCAAAAC,-0.0195
12,GAAGAGTC,-0.136
13,CCCTGATA,-0.265
14,ATGTTAAA,-0.083
15,CATTGCCC,-0.133
16,ACGGATGG,0.0858
17,ACGAGGGC,0.0615
18,GCCTCATA,-0.00634
19,AGTAATCC,0.0754
20,AGGGCGAG,-0.148
21,ACTGGTCG,-0.143
22,GACAGCAA,-0.142
23,CGGTAAAG,0.232
24,CTGGACCC,-0.204
25,ACGATCTA,-0.3
26,ACTCAAGC,-0.0206

row,Sequence,PBM E-score
1,GATCGCAC,-0.0452
2,CCACCACC,-0.108
3,AATTGAAT,-0.0912
4,CTACCACC,-0.0691
5,GTGACCCA,-0.153
6,CGTGCACG,0.109
7,ATCCGCGG,0.362
8,CGACCACC,0.0671
9,GATGTTTA,0.029
10,ATAATAGA,-0.119
11,AGACAGGC,-0.0968
12,AAGGTCCT,-0.24
13,ATACACGA,-0.0636
14,AATCGAGT,-0.111
15,CATACATA,-0.214
16,AATAACGA,-0.089
17,CGATACCC,0.0456
18,AGTGTTCG,0.1
19,CCTTACGA,-0.147
20,ATCTCTAA,0.0439
21,TCATAACA,-0.142
22,ATTTATCC,0.163
23,TAAAATTA,0.0965
24,AGAACCCG,0.11
25,CACATAGA,-0.178
26,ACAGATCA,0.0369

row,Sequence,PBM E-score
1,GGCGTGGA,-0.0849
2,CACTCTCA,-0.292
3,GAAATTAA,0.0737
4,AATCTAGC,-0.262
5,GCATCAGC,-0.0105
6,TAGCATCA,-0.126
7,TCCCAAAA,-0.0528
8,CTCCGTTC,0.394
9,CACAGACC,0.0943
10,CAAGCAGG,0.00606
11,ACGGCCAA,0.123
12,CGTCTCGC,-0.114
13,AGCAACTC,0.0225
14,AATCTGAA,-0.187
15,AAGCAATT,-0.0901
16,AGATGTGA,-0.00546
17,TATGAAGA,-0.0327
18,GCATTTTA,0.0813
19,CGTGTGAG,-0.0888
20,CATCGACC,-0.0666
21,GAATGATA,0.102
22,ACGGCACT,0.226
23,AAAACTCA,0.0289
24,CCGTCCTA,0.0556
25,ACAGCTAT,-0.277
26,CAGTGACG,0.0689

row,Sequence,PBM E-score
1,GCTGTTAA,-0.139
2,ACGCGTTG,-0.0402
3,CTTACGCC,0.153
4,ATCGGGTA,0.0546
5,TACATCGA,-0.115
6,CCAGTTCG,0.0695
7,AGGAATCC,0.0322
8,GTACCAAC,-0.0251
9,ATCGAAAC,0.0377
10,GCCTAAAA,-0.279
11,CCTGCGCA,-0.0614
12,CAGGCCCA,-0.238
13,ACGCTGAC,-0.0402
14,ATTTTATC,0.0903
15,AGAGGCCC,-0.102
16,AGCGATTC,-0.0824
17,GCCAACCC,0.0474
18,GAGGTTAA,-0.042
19,ACTCCTTG,0.0391
20,ACGCTACC,-0.0748
21,AAATACGA,-0.0435
22,CCATAGTA,-0.119
23,AGTGAACG,-0.133
